This is one part of the list. These are noisy estimates, calculated here from bound and input reads.
Target: T1, Pho4 (S. cerevisiae) (UniProt P07270)
T1 sequence: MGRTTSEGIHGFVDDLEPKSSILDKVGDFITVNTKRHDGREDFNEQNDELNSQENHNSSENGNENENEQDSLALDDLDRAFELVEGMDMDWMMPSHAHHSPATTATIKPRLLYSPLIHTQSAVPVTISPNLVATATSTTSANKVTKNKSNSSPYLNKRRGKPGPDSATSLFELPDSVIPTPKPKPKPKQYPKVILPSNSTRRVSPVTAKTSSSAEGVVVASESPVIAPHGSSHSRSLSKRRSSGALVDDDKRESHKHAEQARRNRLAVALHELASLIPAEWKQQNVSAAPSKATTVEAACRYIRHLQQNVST
Experiment: relative binding free energy (BET-seq); higher = weaker binding
Details: reference: library average

Sequence | relative binding free energy [kcal/mol]
TTGGTCACGTGAACGG | 0.29
GGCGGCACGTGTTGAA | 0.04
AGGTTCACGTGCATTG | 0.19
GGAGTCACGTGGTTTT | 0.14
TCTGACACGTGTGCTT | 0.2
CTGTGCACGTGGAAGG | -0.05
AGGGACACGTGCTCGG | 0.01
TGGTGCACGTGTCATA | -0.15
TTGGGCACGTGGTTCT | -0.14
GGGGGCACGTGAGGGC | 0.12
TGTTGCACGTGCGCTA | -0.12
CTTGGCACGTGGGTCG | -0.2
ATGACCACGTGGGGGA | -0.24
GGCGGCACGTGGATGA | 0.03
ATTCACACGTGGGGGC | 0.04
TGATTCACGTGGGCTA | 0.26
GTTTTCACGTGTAGGT | 0.29
ATTAGCACGTGAAGGT | 0.06
GTATGCACGTGGTTAT | 0.04
GGTATCACGTGATACG | 0.32
TGCTGCACGTGTGATG | -0.08
TTGGTCACGTGAAGTG | 0.4
TTTGACACGTGGGTGT | -0.09
TGTGGCACGTGTAAGA | 0.04
TTCTGCACGTGTAGTG | 0
TATATCACGTGTGGGA | 0.14

Sequence | relative binding free energy [kcal/mol]
TTTAACACGTGGCGAG | -0.01
TGTGACACGTGTCGTA | 0.05
GTAAGCACGTGGTTAC | 0.01
AGATTCACGTGGTTGC | 0.25
TTTTTCACGTGTTAAC | 0.35
TTCGGCACGTGTGAAG | 0.13
TAATGCACGTGGCAGT | -0.18
TAGGACACGTGGCGGG | -0.04
GGGGGCACGTGGGTAA | -0.16
AGTGACACGTGAGGGT | 0.19
AAATTCACGTGGCTGA | 0.37
ATAGGCACGTGATGAG | 0.01
TTTACCACGTGATGGT | 0.15
GCTATCACGTGAGGGT | 0.38
GTGCACACGTGATGTG | 0.12
TATTGCACGTGTACGT | 0.06
GTGTCCACGTGTGTGG | 0.06
TAACTCACGTGTAGGA | 0.41
TCTGCCACGTGGTATG | -0.11
ACGTTCACGTGGTCGT | 0.21
GATGTCACGTGTGGAT | 0.16
CGTGGCACGTGATGGA | 0.03
TCGTGCACGTGGATTA | 0.17
ACGGACACGTGGTGTT | 0.07
CTTTACACGTGGGGGG | -0.14
GTAGCCACGTGGGGGG | -0.25

Sequence | relative binding free energy [kcal/mol]
GTAAGCACGTGATGTA | 0.02
TTGTACACGTGGAGTC | -0.01
GTCGGCACGTGGGCGG | -0.09
AGGCTCACGTGTGATG | 0.28
GGTATCACGTGGGGAC | -0.03
GGAGACACGTGGGACG | -0.07
TAGAGCACGTGGATAG | -0.17
ATTGACACGTGGTAAT | 0.06
GGATGCACGTGAGTTG | 0.13
GGGGGCACGTGGGACG | -0.18
GCTGCCACGTGGGGGA | -0.17
GGATCCACGTGCGGGG | 0
TGTGTCACGTGAAAAA | 0.31
CTAGGCACGTGCAGGT | -0.15
GGCGGCACGTGTTATG | -0.05
GCGGGCACGTGGCGTT | -0.2
TGGAGCACGTGAATAT | 0.21
CATAGCACGTGGGTGG | -0.11
AGAGTCACGTGGAGCA | 0.33
ATATTCACGTGGGGGA | 0.14
ATGGTCACGTGTTTTC | 0.34
GTCGTCACGTGTTCGT | 0.15
GGGATCACGTGTGGCC | 0.17
TGGTACACGTGAAAGT | 0.34
AGGGACACGTGGCAGT | -0.13
GTTTACACGTGTGCAG | 0.02

Sequence | relative binding free energy [kcal/mol]
AGTTCCACGTGTTTGT | 0.05
TATGTCACGTGCATGG | -0.01
TTGATCACGTGTGTGC | 0.09
GGAAGCACGTGGAGTG | -0.14
TTAATCACGTGAGGGT | 0.4
GTGGGCACGTGGGCGA | -0.08
CAGTTCACGTGAATGG | 0.35
TGTGACACGTGAAGTT | 0.22
GGTTGCACGTGAGCTA | 0.16
GGCAGCACGTGTGGTA | -0.02
CTTATCACGTGTGTTG | 0.15
AGTGTCACGTGAGAAG | 0.31
GGGCGCACGTGTGTTG | -0.03
TTGGTCACGTGGGCGT | 0.02
CTTGACACGTGAGGAT | 0.23
CGCGACACGTGTGTGG | 0.04
TAGAACACGTGTAAGT | 0.21
AAGTTCACGTGTGAAT | 0.25
TGGATCACGTGTAATT | 0.14
CAGGGCACGTGATGTG | -0.1
AGTTCCACGTGAGGGG | 0.27
GTTATCACGTGCGGAG | 0.18
TCTTTCACGTGAGGGC | 0.43
CAGTGCACGTGAAGGG | 0.23
CTCGTCACGTGGGCGG | 0.04
CTTGGCACGTGTGGAT | -0.16

Sequence | relative binding free energy [kcal/mol]
TCGGACACGTGGTAGT | 0.04
GTGCCCACGTGTTGGG | -0.06
TAAAGCACGTGGTGCT | -0.13
TGCAGCACGTGGCGTA | -0.1
GTTAACACGTGGTATA | 0.01
TCTTTCACGTGATGCG | 0.25
TTCTGCACGTGCAGGG | -0.12
TTATGCACGTGTATTG | -0.03
GCGTGCACGTGAAGTA | 0.3
TTATGCACGTGTGCTG | -0.05
CTGGGCACGTGGGCTG | -0.35
AAAGACACGTGGCGTT | 0.08
TAGCTCACGTGGGCTT | 0.19
GGTGGCACGTGATCTG | -0.08
GTATGCACGTGCCGTG | 0
GGTTCCACGTGGTTTT | 0.12
CTTGTCACGTGGGGTG | -0.05
GTGAACACGTGAAAGT | 0.32
TTGAACACGTGGAAGG | 0.01
ATGTGCACGTGGCGTG | -0.13
GGCTCCACGTGTAGGG | 0.02
GATGGCACGTGGTATT | -0.1
TGATTCACGTGAGCGG | 0.24
GGTTTCACGTGGCGAT | 0.28
TATGACACGTGGTAGG | -0.02
TAGTGCACGTGAATGC | 0.23

Sequence | relative binding free energy [kcal/mol]
ATAGTCACGTGATTTG | 0.16
AAGTACACGTGGGTGC | -0.1
TGTAGCACGTGTCTTG | -0.01
TTTGACACGTGTGTGA | 0
CATGGCACGTGGAATG | -0.08
ATTTGCACGTGTGTAC | 0.05
TGCTGCACGTGTTGTG | -0.08
GTAATCACGTGTGGTC | 0.46
CGATGCACGTGTAGGC | 0.12
ATGTCCACGTGGAGGT | -0.09
CGGTTCACGTGGGGTT | 0.16
AACGTCACGTGCGGTT | 0.15
TGGAGCACGTGTATTA | -0.05
TGGAGCACGTGTGGAC | -0.07
TGGATCACGTGAAAGG | 0.46
ATAAGCACGTGGGAGG | -0.21
TTTGGCACGTGTGTCT | -0.05
TGAGGCACGTGTCATT | -0.03
TGTGTCACGTGACGGC | 0.33
CTAGGCACGTGGGATG | -0.29
AAATGCACGTGGAGGA | 0.03
GGGCGCACGTGGTCGA | 0.05
AAGAACACGTGTGTAT | 0.15
TTAGGCACGTGTGCGA | -0.13
AGGGGCACGTGGGCGG | -0.21
AGGGTCACGTGGGCAG | -0.01

Sequence | relative binding free energy [kcal/mol]
CGGGGCACGTGTTTAG | -0.14
AGGATCACGTGGGCGA | -0.01
GAGTGCACGTGAGTTT | 0.45
AGAGGCACGTGCAGTA | -0.15
ATCTGCACGTGTTTAA | -0.06
TGGCACACGTGTTCGG | 0
TGGGACACGTGGCCAG | -0.05
GGTTGCACGTGATGTC | -0.01
TGTTCCACGTGCTTGG | -0.11
GTTTTCACGTGTCGCT | 0.33
ATGTGCACGTGGCCTT | -0.19
TTGCCCACGTGGTGTT | -0.18
TGTGTCACGTGCGCGA | -0.03
TTATTCACGTGCTTTT | 0.06
TACGCCACGTGTTGGT | 0
CGGTTCACGTGCGGGG | 0.3
TAGGACACGTGATGCG | 0.04
CGGATCACGTGAATTG | 0.46
GAATCCACGTGGTTTT | 0.14
GGATGCACGTGGGAAA | 0
GTGGGCACGTGGGTTC | -0.12
ATCATCACGTGGGGGG | 0.01
AGTGGCACGTGAGGTA | 0.08
GGTCGCACGTGCAGTG | 0.11
GGGTACACGTGGGATG | -0.03
TTGGACACGTGTATCG | 0.06

Sequence | relative binding free energy [kcal/mol]
GGAGGCACGTGAGGCC | 0.29
GAGGGCACGTGTGAAT | 0.01
GGGGTCACGTGTTCGC | 0.18
TTAATCACGTGACGTA | 0.23
TAACGCACGTGGTATG | -0.15
AGGGACACGTGGGAGT | -0.01
TCGTTCACGTGTAGAT | 0.4
TCTTTCACGTGGCGTT | 0.15
AGGGGCACGTGTGTAT | -0.12
AAAAGCACGTGGAGGG | -0.18
GGGATCACGTGTTGTA | 0.19
GGTCGCACGTGGTAAA | 0.09
AAGTGCACGTGGGGAC | -0.09
ATATTCACGTGGTATG | 0.14
GGATGCACGTGGTGGC | 0.02
ATGTGCACGTGCGCGG | -0.23
CGGTTCACGTGATTTT | 0.24
GTTGTCACGTGAGTTT | 0.37
AAGTGCACGTGGTCGT | -0.12
TGGAGCACGTGGCAAG | -0.15
GGGTACACGTGAGTAG | 0.25
GGAAACACGTGGGATA | 0.01
TGTTCCACGTGTATGA | 0.16
GGGACCACGTGGGCTG | -0.2
GTATACACGTGAATTG | 0.31
ATCTGCACGTGTATGG | 0

Sequence | relative binding free energy [kcal/mol]
GAATCCACGTGTGTGT | 0.23
TTGTTCACGTGTGTTA | 0.23
AATTGCACGTGTTTGG | 0.08
TCTTTCACGTGTTGCG | 0.16
TGTCACACGTGTTTCG | 0.16
TGTAACACGTGGAGAT | 0.06
ATGTTCACGTGGCGTA | 0.03
TGTGTCACGTGCAGGC | -0.08
TTGAACACGTGTATGG | 0.05
TTCATCACGTGAATGG | 0.32
AGGGACACGTGAGATG | 0.26
GGGAGCACGTGGTGCT | -0.03
TTGTTCACGTGGAAAC | 0.36
GTTGCCACGTGATATG | 0.07
GGTGTCACGTGCTATG | 0.05
TAGTCCACGTGGGGGC | -0.09
ATGGGCACGTGAGACT | 0.13
GACTGCACGTGTGTGT | 0.05
TATTTCACGTGTCTAA | 0.31
GGCATCACGTGGAGTG | 0.09
GCGGACACGTGGTCGG | -0.02
AGTTGCACGTGATCGT | -0.03
